Assay results from article PMC10914734 (Signal Transduction and Targeted Therapy, 2024).

Assays:
Human Thrombin = Human Thrombin (Homo sapiens, UniProt P00734); assay: Protease panel, thrombin inhibition; conditions: at a concentration of 20 μM; read-out: Inhibition rate, Human Thrombin
Experimental: Enzymatic activity and inhibition assays of both compounds against the remaining proteases in Supplementary Table S2 were measured by a commercial company.

Human CAPN1 = biological target: T1, Human CAPN1 (Homo sapiens, UniProt P07384); assay: biochemical
T1 sequence (P07384 2-714 limits assumed): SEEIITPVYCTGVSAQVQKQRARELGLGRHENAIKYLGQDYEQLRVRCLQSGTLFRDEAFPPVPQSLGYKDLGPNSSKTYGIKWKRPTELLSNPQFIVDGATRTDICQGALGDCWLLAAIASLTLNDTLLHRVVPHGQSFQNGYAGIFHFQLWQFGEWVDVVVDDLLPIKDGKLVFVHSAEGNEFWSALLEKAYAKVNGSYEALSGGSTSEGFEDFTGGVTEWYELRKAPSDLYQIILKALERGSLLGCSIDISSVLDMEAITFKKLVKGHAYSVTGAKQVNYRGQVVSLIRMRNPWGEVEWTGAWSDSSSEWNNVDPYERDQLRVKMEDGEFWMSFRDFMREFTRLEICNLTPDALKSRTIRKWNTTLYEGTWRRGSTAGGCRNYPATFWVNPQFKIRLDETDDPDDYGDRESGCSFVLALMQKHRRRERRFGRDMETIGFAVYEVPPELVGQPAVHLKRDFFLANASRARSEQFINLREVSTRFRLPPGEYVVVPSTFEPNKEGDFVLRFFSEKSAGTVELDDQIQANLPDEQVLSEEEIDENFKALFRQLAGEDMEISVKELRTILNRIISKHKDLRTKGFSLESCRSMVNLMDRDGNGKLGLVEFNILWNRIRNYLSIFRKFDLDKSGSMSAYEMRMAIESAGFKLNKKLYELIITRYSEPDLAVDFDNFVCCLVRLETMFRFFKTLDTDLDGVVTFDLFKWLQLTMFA
T1 sequence (P04632 1-268 partner): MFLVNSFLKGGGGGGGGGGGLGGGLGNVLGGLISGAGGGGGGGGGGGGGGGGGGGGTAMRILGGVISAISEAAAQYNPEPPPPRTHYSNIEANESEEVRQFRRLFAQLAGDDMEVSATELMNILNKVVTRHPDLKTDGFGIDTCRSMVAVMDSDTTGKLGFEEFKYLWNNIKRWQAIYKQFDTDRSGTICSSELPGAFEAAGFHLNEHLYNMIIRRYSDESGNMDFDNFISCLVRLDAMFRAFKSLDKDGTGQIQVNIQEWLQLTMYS

Row | SMILES | inhibition at 20 µM (Human Thrombin) | IC50 (Human CAPN1)
1 | O=C(NCc1ccccc1)C(=O)[C@H](C[C@@H]1CCCNC1=O)NC(=O)[C@H](CC1CCCCC1)NC(=O)c1cc2ccccc2o1 [14b, N-((S)-1-(((S)-4-(benzylamino)-3,4-dioxo-1-((S)-2-oxopiperidin-3-yl)butan-2-yl)amino)-3-cyclohexyl-1-oxopropan-2-yl)benzofuran-2-carboxamide] | 4 ± 1% | 348 ± 34 nM
2 | O=C(NCc1ccccc1)C(=O)[C@H](C[C@@H]1CCCNC1=O)NC(=O)[C@H](Cc1ccc(F)cc1)NC(=O)c1cc2ccccc2o1 [14a, N-((S)-1-(((S)-4-(benzylamino)-3,4-dioxo-1-((S)-2-oxopiperidin-3-yl)butan-2-yl)amino)-3-(4-fluorophenyl)-1-oxopropan-2-yl)benzofuran-2-carboxamide] | 9 ± 3% | 375 ± 49.8 nM
